Measured values reported in PubChem BioAssay AID1671189 (National Center for Advancing Translational Sciences (NCATS), 2021).
The whole screen tested about 1,100 compounds, of which about 70 (6%) were called active. Inconclusive results (about 22%) are left out. The call rests on the fitted dose curve; in most records, active means well fitted curve in the direction sought with a large enough effect; inconclusive means small, poorly fitted or top-dose-only effect, or another doubt; inactive means no such curve, though single readings can be large or run the other way. The list shows a part of the results.

Target: Polyunsaturated fatty acid lipoxygenase ALOX12 (Homo sapiens) (UniProt P18054)
Sequence of UniProt P18054 (P18054 whole entry, looked up): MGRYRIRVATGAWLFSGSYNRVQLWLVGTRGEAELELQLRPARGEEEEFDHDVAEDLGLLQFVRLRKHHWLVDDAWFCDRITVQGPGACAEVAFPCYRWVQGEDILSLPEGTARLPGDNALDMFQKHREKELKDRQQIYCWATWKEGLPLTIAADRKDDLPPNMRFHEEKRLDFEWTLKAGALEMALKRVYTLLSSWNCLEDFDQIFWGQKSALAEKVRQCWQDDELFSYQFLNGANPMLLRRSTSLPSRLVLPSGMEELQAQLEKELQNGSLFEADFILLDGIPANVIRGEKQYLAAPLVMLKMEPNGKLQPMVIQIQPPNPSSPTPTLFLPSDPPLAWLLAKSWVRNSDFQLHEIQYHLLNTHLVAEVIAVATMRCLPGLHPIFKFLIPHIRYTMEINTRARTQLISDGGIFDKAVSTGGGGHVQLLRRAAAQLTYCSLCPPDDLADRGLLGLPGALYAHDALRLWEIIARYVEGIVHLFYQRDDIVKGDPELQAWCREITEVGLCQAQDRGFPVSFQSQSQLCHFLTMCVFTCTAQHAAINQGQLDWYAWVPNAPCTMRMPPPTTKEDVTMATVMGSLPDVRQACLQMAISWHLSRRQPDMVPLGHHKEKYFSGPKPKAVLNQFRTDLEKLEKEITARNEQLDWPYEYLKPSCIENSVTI
Assay: Confirmatory qHTS assay for inhibitors of human arachidonate 12S-lipoxygenase (ALOX12): Round 2
Settings: purified human 12-LOX, xylenol orange absorbance; series mostly up to 125 µM; activity change, negative = inhibition: at the top concentration
Summary of the method: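 Activity was measured as hydroperoxide formation via ferrous/xylenol orange, taking the 573 nm to 405 nm absorbance ratio. Reaction: 40 uM arachidonic acid, 30 min at room temperature, after 15 min compound preincubation with 150 nM enzyme, pH 7.0 Hepes buffer.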
On the % scale 0 is the no-effect control and ±100 the full control effect; potency means the concentration at half of the fitted maximal effect.

Activity change, negative = inhibition, inactive:
NCC(=O)N1Cc2ccccc2CC2(CCCCN2CC2CCOCC2)C1 (stereo not given) 2.3%
O=C1NCc2ccccc2CC12CCCN2CC1=CCCCC1 (stereo not given) -18.8%
c1cncc(CNc2cc(-c3cnc4ccccc4n3)c3cc[nH]c3n2)c1 -5.54% [at 64.5 µM]
Cc1ccc(-c2cccc(CN3CCCC(c4nc5ccc(F)cc5c(=O)[nH]4)C3)c2)c(C)c1 (stereo not given) -35.5%
O=C1NCc2ccccc2CC12CCN(Cc1ccccc1Br)C2 (stereo not given) -5.61%
O=C1NC2(Cc3ccccc31)CN(C(=O)c1ccccc1)C2 -15.2%
O=C(N1CCCCC1)N1CCCC1c1nnc2n1CCNC2 (stereo not given) -18.6%
CC(C)NC(=O)N1CCC2(CC1)CN(C(=O)Cc1c[nH]c3ccccc13)CCO2 -6.28%
CNC(c1ccccc1)c1ccccc1 -18.7%
Cc1nc(N2CCC(NC(=O)CC3CCCCC3)CC2)cc(C(F)(F)F)n1 3.04% [at 64.5 µM]
Cc1cccc(OCC(=O)N(C)C2CCc3nn(CC4CC4)c(=O)n3CC2)c1 (stereo not given) -12.3% [at 64.5 µM]
COc1ccc(CC(=O)N2Cc3ccccc3CC3(CCCN(C)C3)C2)cc1 (stereo not given) -20.3%
O=C1NCc2ccccc2CC12CCN(Cc1ccc(O)cc1)CC2 -17.8%
COc1ccccc1-c1ccc(CN2CCCC(c3nc4ccc(F)cc4c(=O)[nH]3)C2)cc1 (stereo not given) -29.2%
COc1ccc(-c2nc(C3CC3)nc3c2CN([S+](=O)([O-])c2ccccc2)CC3)cc1 -25.8%
COc1ccc(CNc2ncnc3c2CN(C2CCCNC2)C(=O)CN3C)cc1 (stereo not given) -15.2%
CC(C)NC(=O)N1CNC(=O)C12CCN(C(=O)CN)CC2 -9.45%
C[C@]1(CO)[C@H]2Cc3sc(NC(=O)c4ccnc(Cl)c4)nc3[C@@H](CC(=O)O)[C@]2(C)CC[C@H]1O -0.718% [at 64.5 µM]
CCCCc1ncc(-c2nccn2C2CCNC2)[nH]1 (stereo not given) 21.1% [at 64.5 µM]
CC(C)NC(=O)N1CCCC(c2nnc3n2CCNC3)C1 (stereo not given) -24.8%
CC(=O)NCCC(=O)N1Cc2ccccc2CC2(CCCN2CC2CCNC2)C1 (stereo not given) -16.7%
CN1CC(=O)N(C2CCNCC2)Cc2c1ncnc2N1CCCC(O)C1 (stereo not given) -29.2%
CC(=O)N1CCC(c2nnc3n2CCNC3)CC1 -11.2%
Cc1cc(C(=O)NCc2ccncc2)c2c(C3CCNCC3)noc2n1 -14.7%
C[S+](=O)([O-])N1CCC(c2nnc3n2CCNC3)CC1 -6.19%
COc1cc(CN2CCCCC23Cc2ccccc2CNC3=O)ccc1F (stereo not given) -19.9%
O=[S+]([O-])(c1ccccc1)N1CC(Oc2ccc(F)c(F)c2)C1 -14.7%
O=C1NCc2ccccc2CC12CCN(Cc1cc(F)ccc1F)C2 (stereo not given) -21.8%
O=C(c1ccccc1)N1CCn2c(nn(-c3cccc(Cl)c3)c2=O)C1 -29%
CCC(=O)N1Cc2ccccc2CC2(CCN(CC3CCNCC3)CC2)C1 -11%
COc1ccc(C(=O)N2CCn3c(nnc3C3CCNCC3)C2)cc1 -15.7%
CC[C@@](N)(C(=O)O)c1ccc(C(=O)O)cc1 8.94%
Cn1nc(C2CCNC2)c2c(C(=O)NCc3ccncc3)cc(C3CC3)nc21 (stereo not given) -24.7%
COc1ccc(-c2noc([C@@H](C)NCC3CCCCC3)c2C(=O)O)cc1 -14.3% [at 64.5 µM]
CCNc1ncnc2c1CN(C1CCCNCC1)C(=O)CN2C (stereo not given) -3.49%
Cc1ccc2nc(C3CCN(Cc4cccs4)CC3)[nH]c(=O)c2c1 -18.6%
CN1CC(=O)N(C2CCCNC2)Cc2c(NCCc3ccccc3F)ncnc21 (stereo not given) -12.1%
O=C(NC1CCN(c2cc(C(F)(F)F)ncn2)CC1)c1ccccc1 -9.8% [at 64.5 µM]
CN1CC(=O)N(C2CCNC2)Cc2c(NC3CCN(Cc4ccccc4)CC3)ncnc21 (stereo not given) -13.3%
O=C(NC1CCCCC1)N1CCCC1c1nnc2n1CCNC2 (stereo not given) -17.1%
CCC(=O)N1Cc2ccccc2CC2(CCCN(CC3CCNC3)C2)C1 (stereo not given) -0.122%
O=C1NCc2ccccc2CC12CCN(Cc1ccnc3ccccc13)C2 (stereo not given) -25.8%
O=C(NCc1ccc(Cl)nc1)c1cnn2c1CN(C(=O)c1ccccc1)CC2 -7.59%
O=C(O)CCCC(=O)N1Cc2ccccc2CC2(CCCCN2CCc2ccccc2)C1 (stereo not given) -6.66%
C[S+](=O)([O-])NC1CC2(CCN(C(=O)CCCN)CC2)c2ccccc21 (stereo not given) -19.1%
CC(=O)NC1CC2(CCN(C(=O)CCCNC(=O)OC(C)(C)C)CC2)Oc2ccccc21 (stereo not given) -9.05%
CN1CCC(C(=O)N2Cc3ccccc3CC3(CCCCN3CC3CCNCC3)C2)CC1 (stereo not given) -24.4%
CC(C)CNC(=O)c1cc(C2CC2)nc2onc(C3CCCNC3)c12 (stereo not given) -8.92%
O=C(c1ccc(C(F)(F)F)cc1)N1CCn2c(nnc2C2CCCNC2)C1 (stereo not given) -18.7%
Cc1noc(C)c1S(=O)(=O)N1CCC(N2CCOC2=O)CC1 -9.89%
CN(c1ccc(Cl)c(Cl)c1)C1CNC1 -9.16%
Cc1ccc(CN2CC3ON=C(C(=O)O)C3C2)cc1 (stereo not given) -27.1%
FC(F)(F)c1ccc(N2C3CCC2CN(Cc2cccc(-c4cccs4)c2)C3)cc1 -3.77%
CC/C(=C(\c1ccccc1)c1ccc(OCCN(C)C)cc1)c1ccccc1 -27.6%
O=C(NC1CCNCC1)c1cc(C2CC2)nc2onc(C3CCCN3)c12 (stereo not given) -4.15%
O=C(O)c1cccc(-c2cncc(C(=O)O)c2)c1 -11.8%
CC(=O)N1CC2(CCCN(CC3CCCCC3)C2)Cc2ccccc21 (stereo not given) -4.35%
O=C1NC(=NC2CCCC2)C2(CCCN(Cc3ccsc3)C2)N1c1cc(F)cc(F)c1 (stereo not given) -8.77%
CN1CC(=O)N(C2CCCNC2)Cc2c(NC3CCCCCC3)ncnc21 (stereo not given) -16.7%
CNC(=O)c1cn2c(n1)CN([S+](C)(=O)[O-])CC2 -21.3%
CC(=O)NC1CC2(CCN(C(=O)Cc3cnc[nH]3)CC2)c2ccccc21 (stereo not given) -3.09%
CN1CCN(CC2(N)CCCCC2)CC1 -1.35% [at 233 µM]
CN1CC(=O)N(C2CCCNCC2)Cc2c1ncnc2N1CCN(c2ccccn2)CC1 (stereo not given) -3.05%
c1ccc(COCCCc2cnc[nH]2)cc1 -4.41%
CN1CC(=O)N(c2ccc(Cl)cc2)Cc2c(NCC3CC3)ncnc21 -20.9%
COCc1nc(C2CC(N)C2)cc(N(C)CCN2CCCCC2=O)n1 (stereo not given) -20% [at 64.5 µM]
CC(C)[S+](=O)([O-])N1CCN(c2ccc(C=O)cc2)C(=O)C1 -1.24%
O=C1CCCN1CCCN1C(=O)[C@@H]2C[C@@H](O)CN2C2(CN(Cc3cccc(OC(F)(F)F)c3)C2)C1=O -0.894% [at 64.5 µM]

Potency, active:
O=C1NCc2ccccc2CC12CCN(Cc1ccc(Br)cc1)C2 (stereo not given) 17.5 µM
CC(=O)NC(c1ccco1)c1cc(Cl)c2cccnc2c1O (stereo not given) 4.85 µM
